Test results published in PubChem BioAssay AID463173 (ICCB-Longwood Screening Facility, Harvard Medical School, 2010).
The whole screen tested about 52,000 compounds, of which about 4,300 (8.3%) were called active. No stated cut-off is given here; in the data, active means survival mostly below about 52% (no sharp cut-off); inactive means mostly above about 56%. The list shows a part of the results.

Test system: DeltatarO mutant
Experiment: growth inhibition of S. aureus wild type versus tarO mutant, primary screen, teichoic acid synthesis inhibitors, RN4220, OD600 (AID 463173)
Details: OD600, 18 h, hits give low values, screened at 18.75 µg/mL (by protocol)

Row | Compound | survival
1 | Cc1cc(C)c2nc(NC(=O)c3ccc(S(=O)(=O)N4CCCC4)cc3)sc2c1 | inactive: 102%
2 | COc1ccc(-c2cc3nc(C)c(CCC(=O)N4CCN(c5ccccc5)CC4)c(C)n3n2)c(OC)c1 | inactive: 79%
3 | Cc1c(CC(=O)NCc2ccccc2)c(=O)oc2c(C)c(O)ccc12 | inactive: 66%
4 | CC(=O)Nc1nonc1-c1nnc(SCc2ccc(F)cc2)n1C | inactive: 44%
5 | COc1ccc(C(C#N)N2N=C(C)CC2c2ccccc2)cc1OC (stereo not given) | inactive: 108%
6 | CCCCSc1nnc2n(-c3cccc(C)c3)c(=O)c3c4c(sc3n12)CCCC4 | active: 1%
7 | Fc1ccccc1Oc1ncnc2c1oc1ccccc12 | active: 37%
8 | CCOC(=O)C1CCN(C(=O)CSc2n[nH]c(-c3ccccc3)n2)CC1 | inactive: 97%
9 | Cc1cccc(OCc2nc(C#N)c(NCc3ccccc3Cl)o2)c1 | inactive: 53%
10 | Cc1ccc2nc(COc3ccc(NC(=O)COc4ccccc4F)cc3)cc(=O)n2c1 | inactive: 118%
11 | COc1ccc(NC(=O)CSc2nc3ccccc3[nH]2)cc1 | inactive: 70%
12 | COc1ccc(CC(=O)OC2CCCN(C)C2)cc1 (stereo not given) | inactive: 58%
13 | O=C(COc1ccccc1Cl)Nc1nc2c(s1)CCCC2 | inactive: 55%
14 | CCOc1cc(C2C(C(=O)OC)=C(C)NC3=C2C(=O)c2ccccc23)c(Br)cc1OC (stereo not given) | inactive: 52%
15 | CCOCCCNC(=O)Cn1nc(C)n2c(cc3cc(C)ccc32)c1=O | inactive: 105%
16 | CCc1ccc(CNC(=O)c2ccc(CSc3nc4ccncc4n3Cc3ccc(OC)cc3)cc2)cc1 | inactive: 71%
17 | COc1ccc(N2CCN(C(=O)Cc3coc4ccc(C)cc34)CC2)cc1 | inactive: 105%
18 | O=S(=O)(Nc1cccc(Cl)c1)c1ccc2[nH]c3c(c2c1)CCCCCC3 | inactive: 109%
19 | CC(C)Oc1cccc(NC(=O)C2CCN(S(=O)(=O)Cc3ccccc3)CC2)c1 | inactive: 67%
20 | COc1ccc(C)cc1NC(=O)C(=O)NCCc1sc(-c2ccc(Cl)cc2)nc1C | inactive: 78%
21 | CCOC(=O)c1c(NC(C)=O)c2c3c(sc2n1Cc1nc(-c2ccc(Cl)cc2)oc1C)CCCC3 | inactive: 82%
22 | CC(=O)c1cccc(NC(=O)CCS(=O)(=O)c2cc3c(cc2C)NC(=O)CO3)c1 | inactive: 85%
23 | CCc1noc(-c2ccc(NC(C)c3ccccc3)c([N+](=O)[O-])c2)n1 (stereo not given) | inactive: 81%

Row | Compound | survival
24 | CCN(CC)C(=O)C1=C(C)Nc2nc3ccccc3n2C1c1ccc(Br)cc1 (stereo not given) | inactive: 66%
25 | O=C(Cn1c(=O)n(Cc2ccco2)c(=O)c2ccc(C(=O)NC3CCCC3)cc21)Nc1ccc(F)cc1 | inactive: 90%
26 | COc1ccc(-n2nc(C(=O)NCCc3ccc(Cl)cc3)c3c4ccccc4n(C)c3c2=O)cc1Cl | inactive: 96%
27 | Cc1cc(C)n(CC(=O)Nc2ccc(F)c(F)c2)c(=O)c1C#N | inactive: 100%
28 | COc1ccc(C(=O)Nc2ccccc2C(=O)NC(C(=O)NCc2ccco2)C(C)C)cc1 (stereo not given) | inactive: 65%
29 | COc1ccc(CCNC(=O)c2c(O)nc3cc(C)ccn3c2=O)cc1OC | inactive: 56%
30 | Cc1cc(-c2ccc(C)c(S(=O)(=O)N3CCCC(C)C3)c2)on1 (stereo not given) | inactive: 79%
31 | COC(=O)c1c(C)oc2ccc(N(C(=O)c3ccncc3)S(=O)(=O)c3cc(C)c(C)cc3C)cc12 | inactive: 50%
32 | COc1ccc(C(CC(=O)Nc2ccc(C)cn2)N2Cc3ccccc3C2=O)cc1OC (stereo not given) | inactive: 89%
33 | CCOC(=O)N1CCC(NC(=O)c2ccc3c(c2)N(Cc2cccc(C)c2)C(=O)c2ccccc2S3(=O)=O)CC1 | inactive: 97%
34 | CCOC(=O)c1c(S(=O)(=O)N2CCC(C(=O)N3CCN(c4cccc(C)c4C)CC3)CC2)c(C)n(C)c1C | inactive: 90%
35 | CCn1cnc2c(cnn2-c2ccccc2)c1=O | inactive: 91%
36 | CCC(CC)C(=O)Nc1cc(-c2cn3cccnc3n2)ccc1OC | inactive: 86%
37 | CCOc1ccccc1C1N=C(N)Nc2nc3ccccc3n21 (stereo not given) | inactive: 81%
38 | Cc1nc(N2CCCC2)c2c(C(=O)Nc3ccc(C)c(Cl)c3)c(C)oc2n1 | inactive: 124%
39 | Cc1ccccc1-c1nnc(CN2CCN(c3cc(Cl)ccc3C)CC2)o1 | inactive: 74%
40 | O=C(CSc1nnc(COc2ccc(Cl)cc2)o1)Nc1ccccc1 | inactive: 51%
41 | CCOc1ccc(C(=O)Nc2c(C(=O)c3ccccc3)oc3ccccc23)cc1 | inactive: 72%
42 | Cc1ccc(CN2CCSc3ccc(C(=O)Nc4ccc(Cl)cc4)cc32)cc1 | inactive: 100%
43 | CCCN(CCC)CCCNC(=O)c1cc2c(=O)oc3ccc(C)cc3c2s1 | inactive: 113%
44 | CC(NC(=O)C1(c2cccs2)CCOCC1)c1ccccc1 (stereo not given) | inactive: 99%
45 | N#Cc1c(/N=C/c2ccco2)oc(-c2ccccc2)c1-c1ccccc1 | inactive: 98%
46 | CCOc1ccc(CCNC(=O)CCCc2cc(-c3ccc(OCC)cc3)on2)cc1 | inactive: 92%

Row | Compound | survival
47 | Cc1nc2cccnc2n1C1CCN(S(=O)(=O)c2ccc(Cl)cc2)CC1 | inactive: 83%
48 | COc1cccc(CNC(=O)c2nnn(CC(=O)Nc3cc(Cl)ccc3C)c2N)c1 | active: 25%
49 | CCC(=O)Nc1ccc2nc(C)n(Cc3ccccc3)c(=O)c2c1 | inactive: 69%
50 | O=S(=O)(c1ccc(F)cc1)N1CCC(Oc2ccc(-n3cnnn3)cc2)CC1 | inactive: 70%
51 | COC(=O)c1ccc(N=NN2CCCCC2)cc1 | inactive: 96%
52 | Cc1ccc(Nc2cc(C)nc3nc(Cc4ccc(Cl)cc4)nn23)cc1 | inactive: 52%
53 | Cc1cccc(N2C(=O)C(CC(=O)Nc3cccc(F)c3)N(Cc3cccs3)C2=O)c1 (stereo not given) | active: 8%
54 | CCC(=O)N1CCc2cc(Br)cc(S(=O)(=O)CCC(=O)Nc3cccc(CC)c3)c21 | inactive: 105%
55 | Cc1ccc(-c2ccc(=O)n(Cc3ccc(F)cc3)n2)cc1 | inactive: 50%
56 | CCOc1ccc(NC(=O)c2c(NC(=O)c3ccco3)sc3c2CCC(C(C)(C)C)C3)cc1 (stereo not given) | inactive: 68%
57 | O=C(O)CC(NS(=O)(=O)c1ccc(Cl)s1)c1ccccc1 (stereo not given) | inactive: 76%
58 | Cc1nc2cccnc2n1-c1cccc(C(=O)NCc2ccc(OC(C)C)cc2)c1 | inactive: 71%
59 | COc1cc(NS(=O)(=O)c2ccc(NC(=O)C(C)Oc3ccc(Cl)cc3Cl)cc2)nc(OC)n1 (stereo not given) | inactive: 49%
60 | COc1ccc(Nc2c(-c3ccc(Cl)cc3)nc3cnccn23)cc1OC | inactive: 58%
61 | CC(C)c1ccccc1NC(=O)CC(C)(C)C | inactive: 74%
62 | Cc1cc(C)cc(Oc2coc3c(CN4CCN(C)CC4)c(O)ccc3c2=O)c1 | inactive: 53%
63 | O=C(NCc1ccccc1Cl)C1CCN(S(=O)(=O)c2ccc3c(c2)CCCN3C(=O)C2CCC2)CC1 | inactive: 85%
64 | CCC12CN3CC(C)(CN(C1)C3c1ccc(O)cc1O)C2=O (stereo not given) | inactive: 78%
65 | Cc1ccc2nc(/C(C#N)=C/c3cccc(Br)c3)[nH]c2c1 | active: 3%
66 | Cc1ccccc1CN1CCC(CNc2ncnc3onc(-c4ccc(Cl)cc4)c23)CC1 | inactive: 67%
67 | CN(C)S(=O)(=O)n1cc(/C=C(\NC(=O)c2ccccc2F)C(=O)NCCCn2ccnc2)c2ccccc21 | inactive: 99%
68 | CC(=O)Nc1nnc(SCC(=O)N2CCCC2)s1 | inactive: 55%
69 | COc1ccc2[nH]c(=O)c(CN(Cc3cccs3)C(c3nnnn3C(C)(C)C)C(C)C)cc2c1 (stereo not given) | inactive: 107%

Row | Compound | survival
70 | Cc1ccc(NC(=O)C2CCCN(c3ncnc4c3nc3n4CCCCC3)C2)cc1F (stereo not given) | inactive: 92%
71 | CCOc1ccccc1CNC(=O)Cn1c(-c2ccccc2)cc(C(C)=O)c1C | inactive: 58%
72 | O=C(NC1CC(=O)N(c2cccc(F)c2)C1)c1ccc(S(=O)(=O)N2CCCC2)cc1 (stereo not given) | inactive: 68%
73 | O=C(Cn1c(=O)n(Cc2ccccc2)c(=O)c2sc3ccccc3c21)NCc1ccccc1Cl | inactive: 112%
74 | O=C(CCc1nc(-c2cccs2)no1)Nc1ccccc1[N+](=O)[O-] | inactive: 82%
75 | Cc1ccn2c(=O)c(C(=O)NCCc3ccccc3)c(O)nc2c1 | inactive: 136%
76 | CC1CC(C)(C)NC(=O)O1 (stereo not given) | inactive: 96%
77 | Cc1ccc2nc(NC(=O)CSc3nccn3Cc3ccc(Cl)cc3)sc2c1 | inactive: 96%
78 | COc1ccc(CCNC(=O)c2cnc3ccc(C)cn3c2=O)cc1 | inactive: 100%
79 | CCCS(=O)(=O)c1c(S(=O)(=O)CCC)c2cc(CC)ccn2c1C(=O)c1ccc(OC)cc1 | inactive: 84%
80 | COc1cccc(Cn2nnc(C(=O)Nc3cc(C)ccc3C)c2N)c1 | inactive: 100%
81 | CC(C)CS(=O)(=O)c1oc(-c2ccc(F)cc2)nc1S(=O)(=O)c1ccccc1 | active: -4%
82 | CCOc1ccc(NC(=O)N2CCC(C(N)=O)(N3CCCCC3)CC2)cc1 | inactive: 101%
83 | COc1ccc(N2CCN(C(=O)C3CCCN(S(=O)(=O)c4ccc5c(c4)CCCN5C(C)=O)C3)CC2)cc1 (stereo not given) | inactive: 115%
84 | COc1ccc(OC)c(-c2cc(C(=O)NCCc3ccccc3)c3c(-c4ccc(C)cc4)[nH]nc3n2)c1 | inactive: 67%
85 | CC(NC(=O)CCCC1=NS(=O)(=O)c2ccccc2N1)c1ccccc1 (stereo not given) | inactive: 83%
86 | CCOc1ccccc1NC(=O)c1c(NC(=O)COc2ccccc2)sc2c1CCCCC2 | inactive: 141%
87 | CCCn1cc(S(=O)(=O)c2ccccc2)c(=O)c2cc(F)c(N3CCCCC3)cc21 | inactive: 67%
88 | O=C(Nc1cccc(Cl)c1)N1CCSc2ccccc21 | inactive: 79%
89 | CSc1ccc(CCNC(=O)c2cnn(-c3ccccc3)c2-n2cccc2)cc1 | active: 46%
90 | Cc1cccc(NC(=O)c2cc(S(=O)(=O)N3CCc4ccccc43)ccc2F)c1C | inactive: 65%
